# Measurements published in publication PMC4336329 (PLoS ONE, 2015).
# Out of some 310,000 compounds screened, about 14,000 (4.5%) showed an effect of 50% or more. The effect is printed as a negative number. The list shows a part of the results.
# Biological target: human ether-à-go-go-related gene (hERG) potassium channel (human, UniProt Q12809)
# Assay: primary screen, population patch clamp on CHO cells stably expressing hERG
# 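Further: peak tail current of the secondary pulse compared with the same well before compound.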
# human ether-à-go-go-related gene (hERG) potassium channel, sequence (Q12809 whole entry, looked up): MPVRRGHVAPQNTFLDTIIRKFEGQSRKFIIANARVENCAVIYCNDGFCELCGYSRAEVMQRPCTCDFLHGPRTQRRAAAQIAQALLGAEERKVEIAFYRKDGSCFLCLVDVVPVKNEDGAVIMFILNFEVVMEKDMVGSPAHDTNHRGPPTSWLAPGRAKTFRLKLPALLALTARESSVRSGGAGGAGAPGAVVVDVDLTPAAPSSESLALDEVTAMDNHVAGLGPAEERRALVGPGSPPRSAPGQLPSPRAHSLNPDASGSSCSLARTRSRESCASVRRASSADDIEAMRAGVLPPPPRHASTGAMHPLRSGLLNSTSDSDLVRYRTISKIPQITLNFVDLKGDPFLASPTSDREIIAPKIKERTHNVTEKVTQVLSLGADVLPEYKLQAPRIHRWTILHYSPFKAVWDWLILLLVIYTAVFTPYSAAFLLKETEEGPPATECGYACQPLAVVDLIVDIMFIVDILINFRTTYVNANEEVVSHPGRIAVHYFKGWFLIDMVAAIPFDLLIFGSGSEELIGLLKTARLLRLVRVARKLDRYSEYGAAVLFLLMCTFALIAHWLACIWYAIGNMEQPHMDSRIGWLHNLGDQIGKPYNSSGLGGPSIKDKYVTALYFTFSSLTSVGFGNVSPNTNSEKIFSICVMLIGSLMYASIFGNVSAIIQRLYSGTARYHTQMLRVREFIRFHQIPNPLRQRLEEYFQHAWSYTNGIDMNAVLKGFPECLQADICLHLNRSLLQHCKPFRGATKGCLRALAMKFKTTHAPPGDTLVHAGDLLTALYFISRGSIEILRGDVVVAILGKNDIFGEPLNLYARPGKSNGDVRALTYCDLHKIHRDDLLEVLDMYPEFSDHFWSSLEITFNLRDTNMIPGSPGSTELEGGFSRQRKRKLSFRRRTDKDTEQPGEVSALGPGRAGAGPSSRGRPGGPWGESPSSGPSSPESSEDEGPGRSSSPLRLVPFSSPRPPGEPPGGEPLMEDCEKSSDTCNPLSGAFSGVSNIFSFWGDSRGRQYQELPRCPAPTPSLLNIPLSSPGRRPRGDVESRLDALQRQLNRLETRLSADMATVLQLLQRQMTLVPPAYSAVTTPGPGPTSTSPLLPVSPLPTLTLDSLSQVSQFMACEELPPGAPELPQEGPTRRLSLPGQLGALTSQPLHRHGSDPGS
row,Structure (SMILES),"hERG current change (%, negative = inhibition) at 10uM [%]"
1,Cc1ccc(OCc2nnc(SCC(=O)Nc3ncc(C)s3)o2)cc1,8.46
2,COC(=O)CC1=Nc2ccccc2NC(=O)C1,7.33
3,Cn1ccnc1Sc1nc2c(c(=O)n(C)c(=O)n2C)n1C,1.07
4,CC(C)(c1ccccc1)c1ccc(OCC(O)CNC2CCN(Cc3ccccc3)CC2)cc1.O=C(O)C(=O)O (centres unmarked),-72.8
5,CCn1c(O)c(N=NC(=O)c2ccc(CSc3nncn3C)cc2)c2ccccc21,-10.2
6,O=C(NCC(c1ccco1)N1CCN(c2ccccc2F)CC1)C(=O)NC1CC1 (centres unmarked),0.336
7,COc1ccc(C(=O)/C=C/c2ccc(F)cc2)c(OC(=O)c2ccc([N+](=O)[O-])cc2)c1,8.95
8,COc1ccc(-n2cnnc2SCC(=O)Nc2cccc(S(=O)(=O)N3CCCCC3)c2)cc1,-18.5
9,COc1ccc(Cc2nnc(NC(=O)c3cc(OC)c(OC)c(OC)c3)s2)cc1,-3.71
10,Cc1ccccc1OCC(=O)Nc1ccc(Cc2ccncc2)cc1,-25
11,Cc1cc(NC(=O)c2cc(Cl)ccc2Cl)no1,6.41
12,COc1ccc(N2CCN(C(=O)CNC(=O)c3ccccc3Cl)CC2)cc1,-1.32
13,CC(=O)[O-].Cc1cc(C)c(S(=O)(=O)n2cc(C(C)C([NH3+])C(=O)O)c3ccccc32)c(C)c1 (centres unmarked),18
14,CCN1CCN(CCNC(=O)CSCc2nc(-c3ccc(OC)c(OC)c3)oc2C)CC1,3.82
15,COc1ccc(N(CC(=O)N2CCN(C)CC2)S(C)(=O)=O)cc1OC,4.86
16,COC(=O)c1ccccc1NC(=S)N(C)C,9.9
17,O=C1C2C3C=CC(CC3)C2C(=O)N1c1ccccc1 (centres unmarked),7.75
18,CC(C)C(OC(=O)C1CCCO1)C(=O)NC1CCCC1 (centres unmarked),2.54
19,CCOC(=O)CSc1ccccn1,13.1
20,COCOc1cc(O)c(C(=O)/C=C/c2ccc(OCOC)c(OCOC)c2)c(OCOC)c1,1.09
21,O=C(O)C1C2C=CC(O2)C1C(=O)NCCc1cccc(Cl)c1 (centres unmarked),19.6
22,C=CCn1c(SC)nnc1C1COc2ccccc2O1 (centres unmarked),-19
23,O=C(NCCC(=O)N(Cc1ccco1)Cc1cccs1)c1ccccc1Cl,-16.5

row,Structure (SMILES),"hERG current change (%, negative = inhibition) at 10uM [%]"
1,O=C(CSCc1ccccc1)Nc1ccc(S(=O)(=O)Nc2ncccn2)cc1,15.7
2,CCC1CCCCN1CCCNC(=O)Cn1c(=O)c2cccn2c2cccnc21 (centres unmarked),12.1
3,COc1cc(OC)c(C(=O)Nc2ccccc2-c2ccccc2)cc1OC,-25.6
4,C/C(=N\N(Cc1ccccc1)c1ccccc1)c1cccnc1,-25.6
5,COc1ccc(NC(=O)N2CCCCCC2)c(OC)c1,17
6,CN(C)C(/C=C/Nc1cccc([N+](=O)[O-])c1)=C(C#N)C#N,-11.1
7,COc1ccc(Cc2nc3ccc(C(=O)N(C)CCn4ccnc4)cc3o2)cc1OC,15.5
8,COCCn1c(SCC(=O)NN2C(=O)NC(C)(c3ccccc3)C2=O)nnc1-c1ccncc1 (centres unmarked),13.8
9,O=C(Cc1cccs1)N/N=C/C(Cl)=C/c1ccccc1,18.5
10,CCc1nnc(NC(=O)c2cc(-c3ccccn3)nc3ccc(Br)cc23)s1,8.08
11,O=C(Cc1cccs1)NCC1CCCO1 (centres unmarked),7.84
12,COC(=O)COc1ccc(S(=O)(=O)NCc2ccc3c(c2)OCO3)cc1C,-2.82
13,O=C(CCCN1C(=O)c2cccc3cccc(c23)C1=O)NCc1cccs1,19.9
14,Cc1c(-c2nnc(-c3ccc(C(F)(F)F)cc3)o2)cnn1-c1ccccc1,18.8
15,Cc1ccc(CC(=O)NCc2ccc(Cl)cc2)cc1,19.4
16,O=C(O)CCCC(=O)Nc1ccc(Oc2cccc(C(F)(F)F)c2)nc1,19.4
17,CCCC1(c2ccccc2)NC(=O)N(CCN2C(=O)c3ccccc3C2=O)C1=O (centres unmarked),-13.9
18,CCN(CC)CCn1c(N)cc(=O)[nH]c1=O,11.6
19,COc1cc(C(=O)OCC(=O)NCCN2C(=O)CSC2=O)ccc1OCc1c(C)noc1C,15.8
20,O=C(NCCc1ccccc1)C1=COCCO1,6.86
21,CC(c1ccccc1)C1CC(=O)N(CC(=O)O)C1=O (centres unmarked),16.9
22,C=CCN=C1N[C@@H](c2cccc(C(F)(F)F)c2)C(C(=O)OC)=C(C)N1CC,-1.72
23,C=CCNC(=O)CSc1nnc(-c2ccccc2Br)n1-c1cccc(C(F)(F)F)c1,1.12

row,Structure (SMILES),"hERG current change (%, negative = inhibition) at 10uM [%]"
1,CCN1CCN(C(=O)CN(C)S(=O)(=O)c2ccc(Cl)cc2)CC1,-35.6
2,Cc1ccc(C2C3=C(CC(C)(C)CC3=O)OC3=C2C(=O)CC(C)(C)C3)cc1,6.28
3,Nn1c(SCC(=O)Nc2ccc(N3CCOCC3)cc2)nnc1-c1ccccc1F,-9.58
4,CC(C)OC(=O)C1CC=CCC1C(=O)Nc1ccc(Cl)cc1 (centres unmarked),-6.02
5,NNC(=O)CNC(=O)c1ccccc1F,10.7
6,O=C1CC(Nc2ccc(N3CCOCC3)cc2)C(=O)N1Cc1ccccc1 (centres unmarked),3.46
7,C=C1C/C(=C/C)C(=O)O[C@@H]2CCN3CC=C(COC(=O)[C@]1(C)O)[C@H]23,-0.965
8,CC1CCCC(NC(=O)NC(=O)CCl)C1C (centres unmarked),12.7
9,Cc1nc2ccccc2nc1OCC(=O)NCc1ccc2c(c1)OCO2,-11.6
10,O=C(O)c1nc2ccccc2nc1C(=O)O,14.9
11,Cc1cc(C)n2nc(SCC(=O)Nc3ccccc3C)nc2n1,1.88
12,CCOC(=O)c1c(NC(=O)CSc2nnc(-c3ccccc3C)n2C)sc(C(C)=O)c1C,-63
13,CSC1=N/C(=C/c2cccnc2)C(=O)N1Cc1ccc(Cl)cc1,-27.1
14,O=C1NC(=Nc2ccccc2)c2ccc([N+](=O)[O-])cc21,3.21
15,O=C(NC1CCCN(Cc2ccc(Cl)cc2)C1)c1c(F)ccc(F)c1F (centres unmarked),-75.3
16,CN(CCO)S(=O)(=O)c1ccc2c(c1)C(=NNC(N)=O)c1cc(S(=O)(=O)N(C)CCO)ccc1-2,7.97
17,NC(=O)OCCSc1nnc(-c2cccc(C(N)=S)c2)o1,2.14
18,COc1cccc(N2C(=O)CN(Cc3ccccc3)C2=S)c1,6.83
19,Cc1ccccc1OCc1nc2ccc(S(=O)(=O)N3CCOCC3)cc2[nH]1,-17.6
20,CCOCCn1c(SCCCc2ccccc2)nc2c1c(=O)[nH]c(=O)n2C,-2.67
21,O=[N+]([O-])c1ccc(N2CCN(S(=O)(=O)c3ccc4ccccc4c3)CC2)cc1NCC1CCCO1 (centres unmarked),18.2
22,COc1ccc(OCCn2c(C)c(/C=N/n3cnnc3)c3ccccc32)cc1,-0.339
23,COc1ccc(CCc2nnc(CCC(=O)NCCc3ncccc3C)o2)cc1,-3.34

row,Structure (SMILES),"hERG current change (%, negative = inhibition) at 10uM [%]"
1,Cc1ccc(NC(=O)C2C3C=CC4(O3)C2C(=O)N(CCCN2CCCC2)C4C(=O)NC2CCCCC2)cc1Cl (centres unmarked),17.5
2,Cn1cccc1/C=N/N1CCN(Cc2ccccc2)CC1,-8.12
3,CN(C)Cc1ccccc1Sc1ccccc1Br,-36.5
4,COc1ccccc1NC(=O)CSc1ccc(-c2ccc(-n3ccnc3)cc2)nn1,-3.71
5,Cc1ccc(CN(CC(=O)NCC2CCCO2)S(=O)(=O)c2ccc(C)cc2)cc1 (centres unmarked),-1.71
6,CCn1c(C)nc2cc(C(=O)NNC(=O)Nc3ccc(Cl)cc3)ccc21,-12.7
7,O=C(O)C1Cc2ccccc2N2CCCC12 (centres unmarked),20
8,CCC(C(=O)Nc1ccc(C(=O)O)cc1NC(=O)C(CC)c1ccccc1)c1ccccc1 (centres unmarked),9.71
9,CCOC(=O)C(NC(=O)Nc1ccc(C(N)=O)cc1)(c1ccccc1)C(F)(F)F (centres unmarked),-14.6
10,CCOc1ccc(/C=C2\SC(=S)N(NS(=O)(=O)c3ccccc3)C2=O)cc1OC,-6.2
11,Cc1cc(OC(C)C(=O)NCC(O)c2ccccc2)c2c(C)cc(=O)oc2c1 (centres unmarked),11
12,O=C(Nc1ccccc1)ON=C1c2ccccc2-c2ccccc21,10.3
13,C/C(=N\NC(=O)CN1CCCCC1)c1ccccc1O,-2.4
14,COc1ccc(Cn2c(CCCO)nc3ccccc32)cc1OC,-4.94
15,Cc1ccnc(NC(=O)c2cccs2)c1,12
16,NC(=O)c1oc2ccccc2c1NC(=O)c1ccc([N+](=O)[O-])o1,14.7
17,O=C(Nc1cccc(-c2nc3ccccc3[nH]2)c1)c1ccco1,-16.9
18,COc1ccccc1Oc1nnnn1-c1ccc(C(N)=O)cc1,2.96
19,O=C1c2cccc3c(N4CCCCC4)ccc(c23)C(=O)N1CCO,-0.161
20,O=C1c2ccccc2CN1CCSC(=S)N1CCOCC1,-8.59
